Laboratory results published in patent publication US20040120949A1, “Compositions and methods for treating cancer using cytotoxic CD44 antibody immunoconjugates and radiotherapy” (Boehringer Ingelheim International GmbH, priority 2002, published 2004).

Test system: CD44v6
Test: Antigen binding affinity of humanised VFF-18 versions
Set-up: species or system human

Antigen binding affinity (comparative): higher binding affinity than BIWA 4
B1: BIWA 8: Humanised CD44v6 antibody comprising light chains SEQ ID NO:8 and heavy chains SEQ ID NO:6 (antibody)
heavy: EVQLVESGGGLVKPGGSLRLSCAASGFTFSSYDMSWVRQAPGKGLEWVSTISSGGSYTYYLDSIKGRFTISRDNAKNSLYLQMNSLRAEDTAVYYCARQGLDYWGRGTLVTVSS[human IgG1 constant region cut from this listing]
light: EIVLTQSPATLSLSPGERATLSCSASSSINYIYWLQQKPGQAPRILIYLTSNLASGVPARFSGSGSGTDFTLTISSLEPEDFAVYYCLQWSSNPLTFGGGTKVEIKRTVAAPSVFIFPPSDEQLKSGTASVVCLLNNFYPREAKVQWKVDNALQSGNSQESVTEQDSKDSTYSLSSTLTLSKADYEKHKVYACEVTHQGLSSPVTKSFNRGEC
modifications: Humanised Murine Antibody BIWA 4 Heavy Chain; Humanised Murine Antibody BIWA 8 Light Chain
